Data as given in PubChem BioAssay AID1508642 (National Center for Advancing Translational Sciences (NCATS), 2021).
About 200 (0.47%) of roughly 43,000 compounds were called active. Inconclusive results, whose numbers are uncertain, are shown with a selection of clear calls. Calls follow the shape of the dose curve; as a rule, active = well fitted cell-killing curve with a large enough effect; inconclusive = small, poorly fitted or top-dose-only effect, or effect the other way; inactive = flat fitted curve, though single readings scatter. A potency beside an inconclusive call is a rough fit, not a confirmed value.

test: Cell viability qHTS assay in S16 Pmp22-F2sN cells; settings: S16 Pmp22-F2sN Schwann cells (luciferase reporters placed in the Pmp22 gene) viability, CellTiter-Glo, 24 h; activity change, negative = cytotoxicity: at 57.5 µM (top of the series); also: nearly all actives have a fitted effect of over 65% in size
Method in brief: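 Seed 500-1,000 S16 Pmp22-F2sN cells per well in phenol-red-free DMEM with 10% heat-inactivated FBS; pin-add 23 nL compound; incubate 24 h at 37C; add CellTiter-Glo, wait 15 min protected from light; read luminescence.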
% is scaled to controls: 0 for no effect and ±100 for the full control effect; potency is read from the fitted curve at half-maximal effect; tags tell the direction and shape of the fitted curve.

| SMILES | Potency | activity change, negative = cytotoxicity |
| --- | --- | --- |
| CCn1c(=O)cc(SCC(=O)Nc2cc(Cl)ccc2OC)c2ccccc21 | inconclusive: 39.8 µM [cytotoxic, single point] | – |
| CCOc1ccc(-c2nnc(SCC(=O)Oc3ccccc3)o2)cc1 | – | inactive: 9.36% |
| COc1cccc(-c2nn(C)c3sc(C(=O)NCCc4cccc(C)c4)cc23)c1 | inconclusive: 28.2 µM [cytotoxic, partial curve] | – |
| CCOc1ccc(OCC)c(NC(=O)c2cnn(-c3ccc(F)cc3)c2C2CCN(C(=O)OC(C)(C)C)CC2)c1 | inconclusive: 39.8 µM [cytotoxic, single point] | – |
| Cc1ccc(-n2ncc3c(NC4CCCC4)ncnc32)cc1 | – | inactive: -15.6% |
| Cc1ccc(NC(=O)CN2C(=O)CSc3ccc(S(=O)(=O)N(C)C)cc32)c(C)c1 | inconclusive: 39.8 µM [cytotoxic, single point] | – |
| CC1CCn2c(nc3cc(C(=O)NCCc4ccccc4)ccc32)C1 (stereo not drawn) | – | inactive: 13.4% |
| CCC(C)n1c(=N)c(C(=O)NC2CCCC2)cc2c(=O)n3ccccc3nc21 (stereo not drawn) | – | inactive: -3.03% |
| CCOc1ccc(CNC(=O)Nc2ccc3c(c2)N(C)C(=O)c2ccccc2S3)cc1 | inconclusive: 28.2 µM [cytotoxic, single point] | – |
| Cc1ccccc1Nc1c(-c2ccc(Br)cc2O)nc2sccn12 | inconclusive: 39.8 µM [cytotoxic, partial curve, poor fit] | – |
| COc1ccc(CC(=O)Nc2sc3c(c2C(=O)Nc2cccc(C)c2)CCCCC3)cc1 | active: 25.1 µM | – |
| COc1ccc(NC(=O)c2sc3nc4c(cc3c2N)CCCCCC4)c(OC)c1 | inconclusive: 39.8 µM [cytotoxic, single point] | – |
| COc1ccc(CCNC(=O)c2ccc3c(c2)CCN3S(=O)(=O)c2ccccc2)cc1OC | inconclusive: 28.2 µM [cytotoxic, single point] | – |
| COc1ccccc1Nc1c2c(nc3ccc(NC(=O)c4ccc(OC)c(OC)c4)cc13)CCCC2 | inconclusive: 39.8 µM [cytotoxic, single point] | – |
| CCOC(=O)c1cc(-c2ccc(OC)c(S(=O)(=O)NC3CCCCC3)c2)on1 | inconclusive: 39.8 µM [cytotoxic, single point] | – |
| COCCNC(=O)c1ccc(-n2c(-c3ccccc3)cc3c2CCC(C)C3)cc1 (stereo not drawn) | inconclusive: 22.4 µM [rising, partial curve, poor fit] | – |
| COc1ccc(-c2cc(C(F)(F)F)nc(SCC(=O)N3CCCCC3)n2)cc1OC | inconclusive: 35.5 µM [cytotoxic, partial curve, poor fit] | – |
| CCc1cccc(C)c1NC(=O)C(CC)n1nc(C)c2c(C)n(-c3ccccc3)nc2c1=O (stereo not drawn) | – | inactive: -2.39% |
| CCCCN(C)CCCNC(=O)Cn1ncc2c3ccccc3n(Cc3cccc(Cl)c3)c2c1=O | inconclusive: 39.8 µM [cytotoxic, single point] | – |
| COc1ccc2nc(NC(=O)c3nc(S(=O)(=O)Cc4ccccc4F)ncc3Cl)sc2c1 | active: 3.55 µM | – |
| CCOc1ccc(N(Cc2ccccc2)C(=O)c2nc(SCC)ncc2Cl)cc1 | – | inactive: -13.1% |

| SMILES | Potency | activity change, negative = cytotoxicity |
| --- | --- | --- |
| Cc1ccc(Nc2cc(C)nc(-n3nc(C)cc3C)n2)cc1 | inconclusive: 35.5 µM [cytotoxic, single point] | – |
| COc1ccc(CCN2CCC(CNC(=O)c3cnn(-c4ccc(C)cc4)c3C3CCN(C(=O)OC(C)(C)C)CC3)CC2)cc1 | inconclusive: 25.1 µM [cytotoxic, single point] | – |
| CCc1sc(Nc2cccc(C)c2)nc1-c1cc2cccc(OC)c2oc1=O | inconclusive: 25.1 µM [cytotoxic, single point] | – |
| Cc1ccc(S(=O)(=O)N2CCc3cc(C(=O)N(C)Cc4ccccc4)ccc32)cc1 | inconclusive: 39.8 µM [cytotoxic, single point] | – |
| CCN(CC)c1cc(C)c2cc(NC(=O)/C=C/c3ccccc3Cl)ccc2n1 | inconclusive: 39.8 µM [cytotoxic, single point] | – |
| O=C(CSc1ncc2c(n1)-c1cc(Cl)ccc1N(Cc1ccccc1)S2(=O)=O)Nc1ccc(F)cc1F | inconclusive: 15.8 µM [cytotoxic, partial curve, poor fit] | – |
| COCCn1c(=O)[nH]c2cc(C(=O)N3CCN(c4ccc(Cl)cc4)CC3)ccc2c1=O | inconclusive: 39.8 µM [cytotoxic, partial curve, poor fit] | – |
| Cc1nc(-c2ccc(Cl)cc2)sc1CCNC(=O)C(=O)Nc1ccc2c(c1)OCCO2 | inconclusive: 39.8 µM [cytotoxic, single point] | – |
| CCOc1ccc2oc(=O)cc(CN3CCN(C(=O)c4cccc(F)c4)CC3)c2c1 | inconclusive: 25.1 µM [cytotoxic, partial curve, poor fit] | – |
| Fc1ccc(Nc2c3c(nc4nncn24)CCC3)cc1 | – | inactive: 17% |
| Cc1ccc2nc(-c3ccc(NC(=O)C(F)(F)F)cc3)sc2c1 | – | inactive: 11% |
| Cc1c(C(=O)OC2CCCCC2)[nH]c2c1C(=O)CC(c1ccccc1Cl)C2 (stereo not drawn) | inconclusive: 8.91 µM [cytotoxic, partial curve, poor fit] | – |
| Cc1ccccc1NC(=O)Nc1ccc2nc(N3CCN(C)CC3)cc(C)c2c1 | inconclusive: 39.8 µM [cytotoxic, single point] | – |
| COc1cc(C2c3c(oc4ccccc4c3=O)C(=O)N2c2nc(C)c(C)s2)ccc1O (stereo not drawn) | inconclusive: 25.1 µM [cytotoxic, partial curve, poor fit] | – |
| COc1ccc(-c2noc(CSc3nnc(-c4ccccc4)n3-c3ccc(F)cc3)n2)c(OC)c1 | inconclusive: 39.8 µM [cytotoxic, single point] | – |
| O=C(Nc1noc2ccccc12)c1c(F)cccc1F | – | inactive: 2.14% |
| COc1ccc(NC(=O)CSc2nnc3scc(-c4ccc(Cl)cc4)n23)cc1 | inconclusive: 28.2 µM [rising, partial curve, poor fit] | – |
| CCOc1ccc(-c2nc3c(C#N)c[nH]n3c2NC2CCCCC2)cc1 | – | inactive: -22.7% |
| Cc1cc(C)cc(NC(=O)Cn2c(=O)n(Cc3ccco3)c(=O)c3oc4ccccc4c32)c1 | – | inactive: -8.71% |
| Cc1cccc(N2CCN(C(=O)C3CCN(c4ncnc5c4nc4n5CCCCC4)CC3)CC2)c1C | inconclusive: 15.8 µM [cytotoxic, partial curve] | – |
| COc1cccc(NC(=O)c2oc3ccccc3c2NC(=O)c2cc3ccccc3o2)c1 | – | inactive: 17.7% |

| SMILES | Potency | activity change, negative = cytotoxicity |
| --- | --- | --- |
| CCc1ccc(NC(=O)Nc2nnc(N(C)C3CCCCC3)s2)cc1 | inconclusive: 7.94 µM [cytotoxic, single point] | – |
| Cc1cccc(NC(=O)CSc2nc3c(sc4ccccc43)c(=O)n2CCCC(=O)NC2CCCC2)c1 | – | inactive: 7.69% |
| Cc1cccc(C(=O)Nc2ccc(S(=O)(=O)N(Cc3ccccc3)c3ccccc3)cc2)c1 | inconclusive: 25.1 µM [cytotoxic, single point] | – |
| COc1cccc(C2=NS(=O)(=O)N(C)C(C(=O)Nc3ccccc3SC)=C2)c1 | inconclusive: 31.6 µM [cytotoxic, partial curve, poor fit] | – |
| Cc1ccc(Cl)cc1N1CCN(CCCNC(=O)C2COc3ccccc3C2)CC1 (stereo not drawn) | inconclusive: 28.2 µM [cytotoxic, single point] | – |
| N#Cc1c(-n2ncnc2-c2ccccc2C(F)(F)F)sc2c1CCCCC2 | inconclusive: 31.6 µM [cytotoxic, partial curve, poor fit] | – |
| Cc1ccc(NCc2cccn2-c2nnc(N3CCC(C(=O)NCCC(C)C)CC3)s2)cc1 | inconclusive: 28.2 µM [cytotoxic, single point] | – |
| Nc1c(-c2nc(-c3ccccc3)no2)nnn1CC(=O)Nc1cccc(F)c1 | inconclusive: 0.178 µM [cytotoxic, full curve, poor fit] | – |
| CCCN(CCC)S(=O)(=O)c1ccc(C(=O)Nc2cccc(-c3nc4ccccc4[nH]3)c2)cc1 | inconclusive: 12.6 µM [cytotoxic, partial curve] | – |
| Fc1ccc(-n2ncc3c(NCCC4=CCCCC4)ncnc32)cc1 | – | inactive: 11.2% |
| O=C(Nc1ccc(Br)cc1)C(Cc1ccccc1)NS(=O)(=O)c1cccc2nsnc12 (stereo not drawn) | – | inactive: 0.873% |
| CC(C)(C)c1ccc(C(=O)NCC(c2cccs2)S(=O)(=O)c2cccs2)cc1 (stereo not drawn) | inconclusive: 39.8 µM [cytotoxic, single point] | – |
| CC(C)(C)OC(=O)N1CCC(c2c(C(=O)NCc3ccco3)cnn2-c2ccccc2Cl)CC1 | inconclusive: 3.55 µM [rising, partial curve, poor fit] | – |
| CCCC(=O)N(c1ccc2oc(C)c(C(C)=O)c2c1)S(=O)(=O)c1ccc(CC)cc1 | inconclusive: 5.62 µM [cytotoxic, full curve, poor fit] | – |
| CC(C)(C)c1ccc(/C=C/C(=O)Nc2ccc(S(N)(=O)=O)cc2)cc1 | inconclusive: 39.8 µM [cytotoxic, single point] | – |
| COC(=O)c1c(-c2ccc(Cl)cc2)noc1N1CCN(c2cc(C)ccc2C)CC1 | inconclusive: 39.8 µM [cytotoxic, single point] | – |
| C=Cc1ccc(Cn2c(C(=O)O)c(CNCc3ccc(F)cc3)c3ccc(C)cc32)cc1 | active: 28.2 µM | – |
| CCC(C)(C)NC(=O)C1CCN(S(=O)(=O)c2ccc3c(c2)CCCN3C(C)=O)CC1 | – | inactive: -3.01% |
| Cc1cc(C)c(NC(=O)C2CCN(c3nc4ccccc4n4cccc34)CC2)c(C)c1 | – | inactive: 10% |
| COC(=O)c1c(NC(=O)c2ccc(S(=O)(=O)N3CCC(C)CC3)cc2)sc2c1CCN(C)C2 | inconclusive: 39.8 µM [cytotoxic, single point] | – |
| CCc1ccc(NC(=O)c2cnn(-c3ccccc3)c2-n2cccc2)cc1 | – | inactive: -30.8% |
